According to the supplement of paper PMC12217912:
The other results are listed elsewhere or left out. Sequences were assembled here from the parent chain. Values near 0.05 are background.

B1: TEV protease; numbered along this chain (parent)
chain: MGESLFKGPRDYNPISSSICHLTNESDGHTTSLYGIGFGPFIITNKHLFRRNNGTLVVQSLHGVFKVKDTTTLQQHLVDGRDMIIIRMPKDFPPFPQKLKFREPQREERICLVTTNFQTKSMSSMVSDTSCTFPSGDGIFWKHWIQTKDGQCGSPLVSTRDGFIVGIHSASNFTNTNNYFTSVPKNFMELLTNQEAQQWVSGWRLNADSVLWGGHKVFMVKPEEPFQPVKEATQL

Variants of: B1
Test: raw area under fraction-flipped curve 0-4 h after induction (AUC4h, not background-subtracted), DNA-recorder readout of cleavage of the substrate (dimensionless); higher = more cleavage of the substrate by the protease variant
Settings: temperature: 34 °C; time window: 0-4 h after rhamnose induction
Description: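 In vivo DNA recorder in E. coli TOP10(DE3) ΔrhaA at 34 °C. Each TEVp single-site mutant (parent TEVp 0) is paired with a single-site variant of the 7-mer TEVs (canonical ENLYFQ|S). The substrate sits between flexible linkers in a Bxb1-sfGFP-TEVs-SsrA fusion, so cleavage stabilises Bxb1 and speeds flipping of a recombination array, read by NGS. The value is the raw area under the fraction-flipped curve over 0-4 h after rhamnose induction (AUC4h), with ≥20 reads per time point. It is not background-subtracted; inactive controls average about 0.047.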
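Note: Bxb1 expression induced with 0.2% (w/v) L-rhamnose at OD600 near 0.5, cultures sampled hourly, flipped fraction per protease–substrate barcode pair counted by paired-end Illumina sequencing.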

| Variant | area with substrate ENLYFQA | area with substrate ENLYFQD | area with substrate ENLYFQH | area with substrate ENLYFQI | area with substrate ENLYFQK | area with substrate ENLYFQL | area with substrate ENLYFQM | area with substrate ENLYFQN | area with substrate ENLYFQP | area with substrate ENLYFQQ | area with substrate ENLYFQR | area with substrate ENLYFQS | area with substrate ENLYFQT | area with substrate ENLYFQW | area with substrate ENLYFQY | area with substrate ENLYFQC | area with substrate ENLYFQG | area with substrate ENLYFQV | area with substrate ENLYFQF | area with substrate ENLYFQE |
| --- | --- | --- | --- | --- | --- | --- | --- | --- | --- | --- | --- | --- | --- | --- | --- | --- | --- | --- | --- | --- |
| L211N | 0.133 | 0.0896 | 0.0983 | 0.0571 | 0.0697 | 0.0583 | 0.11 | 0.0974 | 0.0725 | 0.0925 | 0.0747 | 0.128 | 0.0417 | 0.0482 | 0.0865 | – | – | – | – | – |
| V78D | 0.0702 | – | – | 0.0622 | 0.0527 | 0.045 | – | 0.0539 | 0.0502 | – | 0.0554 | 0.0651 | 0.0553 | – | 0.0547 | 0.08 | 0.0656 | – | – | – |
| V78E | 0.0727 | 0.0593 | 0.0733 | – | 0.0557 | 0.0669 | 0.0627 | 0.0588 | – | – | 0.0279 | 0.0721 | – | – | 0.0656 | 0.0781 | 0.0582 | 0.0547 | – | – |
| E189L | 0.108 | 0.0649 | – | 0.0472 | 0.0621 | 0.0701 | 0.0906 | 0.052 | – | – | 0.0552 | 0.0944 | 0.0625 | 0.0721 | – | 0.112 | 0.0848 | 0.0615 | 0.0813 | – |
| T147S | 0.102 | – | – | – | – | – | – | – | 0.0464 | – | – | 0.0784 | – | – | 0.0645 | – | 0.0803 | – | – | 0.0537 |
| R109K | 0.0872 | – | 0.0809 | – | – | 0.063 | – | – | – | – | 0.0573 | 0.0969 | 0.0747 | – | 0.086 | – | – | – | – | – |
| G138W | 0.0681 | 0.0595 | – | 0.0579 | 0.0577 | – | 0.0689 | 0.0708 | – | – | – | 0.153 | – | – | – | 0.158 | – | 0.0439 | – | – |
| I85H | 0.0678 | 0.0488 | – | – | 0.052 | – | 0.0723 | 0.0495 | – | – | 0.0527 | 0.0597 | 0.0575 | 0.054 | – | 0.0568 | – | – | – | – |
| W203D | 0.0604 | 0.0693 | – | 0.0558 | 0.06 | – | 0.0448 | – | 0.0536 | – | – | 0.0594 | – | 0.0572 | – | 0.0518 | – | – | – | 0.0641 |
| W203P | 0.0686 | – | 0.0775 | – | 0.0629 | 0.0622 | – | – | 0.0457 | – | 0.0453 | 0.0637 | 0.0399 | – | 0.0663 | – | – | – | – | – |
| T114L | 0.0983 | – | 0.0877 | 0.092 | 0.0752 | 0.0683 | 0.0801 | – | 0.0525 | 0.0894 | – | 0.112 | 0.0637 | 0.0852 | 0.0945 | 0.104 | – | 0.0641 | 0.07 | – |
| Q198P | 0.1 | – | – | – | – | 0.101 | – | 0.0749 | 0.0642 | 0.0638 | 0.0487 | 0.0874 | – | – | – | – | – | – | – | – |
| V113Y | 0.129 | – | 0.0737 | 0.0693 | – | 0.0632 | 0.0782 | 0.117 | 0.0645 | – | 0.063 | 0.0991 | – | 0.0597 | – | – | – | – | – | – |
| V113K | 0.0591 | 0.0544 | 0.0609 | – | – | 0.0511 | 0.0567 | 0.0764 | 0.06 | 0.0646 | 0.0609 | 0.0663 | 0.0505 | – | – | 0.0772 | – | – | 0.0577 | – |
| E3W | 0.0919 | 0.0683 | 0.0841 | 0.0528 | 0.0645 | 0.0698 | 0.105 | 0.0822 | – | – | – | 0.108 | 0.0674 | 0.0665 | 0.0709 | 0.115 | 0.124 | – | 0.103 | – |
